Measurements taken from ChEMBL document CHEMBL1961873, “Compounds: GSK PKIS; Assays: Nanosyn kinase panel” (2012).
For some assays here: Most of the strong results are listed elsewhere, so they are rarer here than in the full data. The entries are a selection whose mix differs from that of the whole data set.

Assays:
[1] = molecular target: T1, Inhibitor of nuclear factor kappa-B kinase subunit epsilon (Homo sapiens) (UniProt Q14164); conditions: at 1 µM;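 also: reported values are averaged percent inhibition figures against human IKKε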
T1 sequence (whole entry): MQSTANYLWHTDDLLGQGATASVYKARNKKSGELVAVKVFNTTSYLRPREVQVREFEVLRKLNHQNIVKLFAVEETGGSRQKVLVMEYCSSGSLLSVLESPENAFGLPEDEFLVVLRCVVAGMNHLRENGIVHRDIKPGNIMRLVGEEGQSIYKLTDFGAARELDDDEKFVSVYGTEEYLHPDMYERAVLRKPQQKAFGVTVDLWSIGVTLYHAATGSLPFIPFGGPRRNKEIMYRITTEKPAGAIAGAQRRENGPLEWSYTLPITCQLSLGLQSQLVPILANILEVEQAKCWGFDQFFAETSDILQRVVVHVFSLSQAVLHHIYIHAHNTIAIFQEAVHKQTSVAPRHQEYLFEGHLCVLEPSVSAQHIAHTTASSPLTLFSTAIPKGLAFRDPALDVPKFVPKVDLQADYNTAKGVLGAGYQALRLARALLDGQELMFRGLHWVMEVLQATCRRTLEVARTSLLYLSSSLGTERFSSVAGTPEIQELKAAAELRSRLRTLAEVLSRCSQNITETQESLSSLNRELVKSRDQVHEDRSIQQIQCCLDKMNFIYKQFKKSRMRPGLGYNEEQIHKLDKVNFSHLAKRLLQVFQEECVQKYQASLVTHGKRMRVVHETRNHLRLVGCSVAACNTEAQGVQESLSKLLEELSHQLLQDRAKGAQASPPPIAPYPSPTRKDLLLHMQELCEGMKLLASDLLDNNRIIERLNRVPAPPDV

[2] = molecular target: T2, Serine/threonine-protein kinase Nek1 (Homo sapiens) (UniProt Q96PY6); conditions: at 0.1 µM
T2 sequence (whole entry): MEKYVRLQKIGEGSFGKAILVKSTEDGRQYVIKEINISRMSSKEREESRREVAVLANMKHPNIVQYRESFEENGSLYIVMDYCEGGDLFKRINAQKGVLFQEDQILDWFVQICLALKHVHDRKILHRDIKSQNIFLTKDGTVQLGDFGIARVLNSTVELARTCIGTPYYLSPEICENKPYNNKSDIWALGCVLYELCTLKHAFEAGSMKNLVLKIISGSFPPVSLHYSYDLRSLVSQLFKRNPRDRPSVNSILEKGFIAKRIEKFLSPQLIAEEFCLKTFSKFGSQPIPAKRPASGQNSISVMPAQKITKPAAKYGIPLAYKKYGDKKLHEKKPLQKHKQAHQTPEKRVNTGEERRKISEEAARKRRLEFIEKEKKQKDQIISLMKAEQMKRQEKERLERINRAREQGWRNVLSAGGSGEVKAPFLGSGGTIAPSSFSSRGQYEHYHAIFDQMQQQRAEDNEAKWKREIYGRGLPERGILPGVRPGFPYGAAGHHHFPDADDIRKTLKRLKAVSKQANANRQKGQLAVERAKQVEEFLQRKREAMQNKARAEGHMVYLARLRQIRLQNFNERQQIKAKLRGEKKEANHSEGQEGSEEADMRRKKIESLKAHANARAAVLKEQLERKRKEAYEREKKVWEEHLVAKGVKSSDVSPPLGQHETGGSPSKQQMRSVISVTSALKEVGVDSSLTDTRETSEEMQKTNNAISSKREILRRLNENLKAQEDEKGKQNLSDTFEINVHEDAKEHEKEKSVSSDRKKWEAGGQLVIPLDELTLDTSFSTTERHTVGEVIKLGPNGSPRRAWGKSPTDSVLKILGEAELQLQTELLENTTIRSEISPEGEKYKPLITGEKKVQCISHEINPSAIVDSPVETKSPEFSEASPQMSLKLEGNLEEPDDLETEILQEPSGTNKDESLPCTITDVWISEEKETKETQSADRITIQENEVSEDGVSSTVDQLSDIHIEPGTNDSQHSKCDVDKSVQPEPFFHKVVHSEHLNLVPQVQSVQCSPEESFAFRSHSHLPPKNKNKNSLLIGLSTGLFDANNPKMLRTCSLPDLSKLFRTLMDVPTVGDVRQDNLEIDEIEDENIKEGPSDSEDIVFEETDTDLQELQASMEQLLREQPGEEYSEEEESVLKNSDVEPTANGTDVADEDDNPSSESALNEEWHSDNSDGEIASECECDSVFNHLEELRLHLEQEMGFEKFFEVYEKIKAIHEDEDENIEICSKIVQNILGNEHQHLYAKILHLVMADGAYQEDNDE

[3] = molecular target: T2, Serine/threonine-protein kinase Nek1 (Homo sapiens); conditions: at 1 µM
[4] = molecular target: T3, Serine/threonine-protein kinase Nek2 (Homo sapiens) (UniProt P51955); conditions: at 0.1 µM
T3 sequence (whole entry): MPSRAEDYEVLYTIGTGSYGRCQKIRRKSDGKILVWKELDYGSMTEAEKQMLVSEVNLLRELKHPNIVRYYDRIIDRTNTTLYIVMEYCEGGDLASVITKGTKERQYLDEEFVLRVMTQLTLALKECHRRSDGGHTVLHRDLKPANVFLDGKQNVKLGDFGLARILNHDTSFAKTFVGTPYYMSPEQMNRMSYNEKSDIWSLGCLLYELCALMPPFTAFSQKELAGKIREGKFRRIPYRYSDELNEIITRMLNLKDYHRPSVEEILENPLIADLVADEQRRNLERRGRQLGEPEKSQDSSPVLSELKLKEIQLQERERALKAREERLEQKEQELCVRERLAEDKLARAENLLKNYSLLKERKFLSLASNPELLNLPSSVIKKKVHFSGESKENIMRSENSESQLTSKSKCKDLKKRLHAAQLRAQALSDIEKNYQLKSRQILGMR

[5] = molecular target: T3, Serine/threonine-protein kinase Nek2 (Homo sapiens); conditions: at 1 µM
[6] = molecular target: T4, Serine/threonine-protein kinase Nek6 (Homo sapiens) (UniProt Q9HC98); conditions: at 0.1 µM
T4 sequence (whole entry): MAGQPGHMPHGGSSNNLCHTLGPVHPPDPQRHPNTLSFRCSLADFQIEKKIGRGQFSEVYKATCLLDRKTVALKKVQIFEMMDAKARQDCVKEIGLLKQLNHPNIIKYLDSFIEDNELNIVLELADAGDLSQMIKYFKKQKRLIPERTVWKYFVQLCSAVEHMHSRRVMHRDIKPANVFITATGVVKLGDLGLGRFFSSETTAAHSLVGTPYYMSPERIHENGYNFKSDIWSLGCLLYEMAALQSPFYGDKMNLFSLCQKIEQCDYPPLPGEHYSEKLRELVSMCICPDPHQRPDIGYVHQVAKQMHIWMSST

[7] = molecular target: T4, Serine/threonine-protein kinase Nek6 (Homo sapiens); conditions: at 1 µM
[8] = molecular target: Serine/threonine-protein kinase Nek7 (Homo sapiens) (UniProt Q8TDX7); conditions: at 0.1 µM
Sequence of UniProt Q8TDX7 (Q8TDX7 whole entry, looked up): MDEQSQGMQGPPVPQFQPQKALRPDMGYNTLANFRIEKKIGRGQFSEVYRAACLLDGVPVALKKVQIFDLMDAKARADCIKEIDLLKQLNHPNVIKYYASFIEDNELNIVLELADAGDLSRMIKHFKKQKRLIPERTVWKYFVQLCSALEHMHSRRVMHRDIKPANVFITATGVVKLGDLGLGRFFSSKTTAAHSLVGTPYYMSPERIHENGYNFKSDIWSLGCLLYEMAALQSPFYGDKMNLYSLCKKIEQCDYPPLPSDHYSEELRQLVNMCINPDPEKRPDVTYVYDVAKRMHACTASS

[9] = molecular target: Serine/threonine-protein kinase Nek7 (Homo sapiens) (UniProt Q8TDX7); conditions: at 1 µM
[10] = molecular target: T5, Serine/threonine-protein kinase Nek9 (Homo sapiens) (UniProt Q8TD19); conditions: at 0.1 µM
T5 sequence (whole entry): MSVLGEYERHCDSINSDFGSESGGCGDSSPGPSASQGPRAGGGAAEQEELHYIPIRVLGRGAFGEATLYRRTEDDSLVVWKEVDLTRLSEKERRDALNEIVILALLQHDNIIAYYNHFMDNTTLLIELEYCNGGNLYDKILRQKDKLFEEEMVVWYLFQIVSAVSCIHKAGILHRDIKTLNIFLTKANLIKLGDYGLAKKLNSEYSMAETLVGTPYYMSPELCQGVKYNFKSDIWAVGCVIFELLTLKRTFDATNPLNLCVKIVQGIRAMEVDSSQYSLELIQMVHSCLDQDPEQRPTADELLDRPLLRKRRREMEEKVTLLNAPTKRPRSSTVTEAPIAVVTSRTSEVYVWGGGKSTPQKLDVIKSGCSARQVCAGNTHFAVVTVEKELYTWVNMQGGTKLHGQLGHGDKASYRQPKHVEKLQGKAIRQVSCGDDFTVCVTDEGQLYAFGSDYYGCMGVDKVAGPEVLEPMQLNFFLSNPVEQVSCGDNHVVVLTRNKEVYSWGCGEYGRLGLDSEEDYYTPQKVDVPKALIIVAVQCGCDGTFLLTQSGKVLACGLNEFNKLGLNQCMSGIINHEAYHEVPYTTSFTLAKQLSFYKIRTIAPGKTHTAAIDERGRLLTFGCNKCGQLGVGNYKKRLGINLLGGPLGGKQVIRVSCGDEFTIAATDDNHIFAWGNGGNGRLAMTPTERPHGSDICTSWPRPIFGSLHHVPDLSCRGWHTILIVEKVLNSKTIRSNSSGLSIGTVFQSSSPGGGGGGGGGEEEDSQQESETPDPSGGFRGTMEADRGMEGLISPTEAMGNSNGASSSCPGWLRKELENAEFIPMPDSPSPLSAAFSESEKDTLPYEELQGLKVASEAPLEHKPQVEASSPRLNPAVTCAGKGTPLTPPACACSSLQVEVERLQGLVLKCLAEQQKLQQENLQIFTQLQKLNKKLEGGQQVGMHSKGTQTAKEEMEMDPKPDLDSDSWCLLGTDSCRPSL

[11] = molecular target: T5, Serine/threonine-protein kinase Nek9 (Homo sapiens); conditions: at 1 µM
[12] = molecular target: Serine/threonine-protein kinase PLK1 (Homo sapiens) (UniProt P53350); conditions: at 0.1 µM
Sequence of UniProt P53350 (P53350 whole entry): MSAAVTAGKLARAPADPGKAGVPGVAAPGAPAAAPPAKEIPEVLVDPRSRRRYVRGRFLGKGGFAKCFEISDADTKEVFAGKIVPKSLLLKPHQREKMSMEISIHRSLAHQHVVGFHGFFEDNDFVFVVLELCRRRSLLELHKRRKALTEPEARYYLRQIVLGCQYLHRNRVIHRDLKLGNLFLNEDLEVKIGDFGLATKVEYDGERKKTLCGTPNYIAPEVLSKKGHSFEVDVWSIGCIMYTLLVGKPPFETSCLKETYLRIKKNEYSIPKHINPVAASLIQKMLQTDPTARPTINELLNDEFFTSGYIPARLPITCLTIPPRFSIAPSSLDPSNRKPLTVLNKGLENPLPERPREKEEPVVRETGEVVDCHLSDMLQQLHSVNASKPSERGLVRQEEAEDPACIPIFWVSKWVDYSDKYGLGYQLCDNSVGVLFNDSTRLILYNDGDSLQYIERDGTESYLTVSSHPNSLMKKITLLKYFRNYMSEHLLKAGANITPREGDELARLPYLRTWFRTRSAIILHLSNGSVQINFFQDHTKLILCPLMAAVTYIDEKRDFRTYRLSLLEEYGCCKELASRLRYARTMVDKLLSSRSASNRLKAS

[13] = molecular target: Serine/threonine-protein kinase PLK1 (Homo sapiens) (UniProt P53350); conditions: at 1 µM
[14] = molecular target: T6, Dual specificity protein kinase TTK (Homo sapiens) (UniProt P33981); conditions: at 0.1 µM
T6 sequence (whole entry): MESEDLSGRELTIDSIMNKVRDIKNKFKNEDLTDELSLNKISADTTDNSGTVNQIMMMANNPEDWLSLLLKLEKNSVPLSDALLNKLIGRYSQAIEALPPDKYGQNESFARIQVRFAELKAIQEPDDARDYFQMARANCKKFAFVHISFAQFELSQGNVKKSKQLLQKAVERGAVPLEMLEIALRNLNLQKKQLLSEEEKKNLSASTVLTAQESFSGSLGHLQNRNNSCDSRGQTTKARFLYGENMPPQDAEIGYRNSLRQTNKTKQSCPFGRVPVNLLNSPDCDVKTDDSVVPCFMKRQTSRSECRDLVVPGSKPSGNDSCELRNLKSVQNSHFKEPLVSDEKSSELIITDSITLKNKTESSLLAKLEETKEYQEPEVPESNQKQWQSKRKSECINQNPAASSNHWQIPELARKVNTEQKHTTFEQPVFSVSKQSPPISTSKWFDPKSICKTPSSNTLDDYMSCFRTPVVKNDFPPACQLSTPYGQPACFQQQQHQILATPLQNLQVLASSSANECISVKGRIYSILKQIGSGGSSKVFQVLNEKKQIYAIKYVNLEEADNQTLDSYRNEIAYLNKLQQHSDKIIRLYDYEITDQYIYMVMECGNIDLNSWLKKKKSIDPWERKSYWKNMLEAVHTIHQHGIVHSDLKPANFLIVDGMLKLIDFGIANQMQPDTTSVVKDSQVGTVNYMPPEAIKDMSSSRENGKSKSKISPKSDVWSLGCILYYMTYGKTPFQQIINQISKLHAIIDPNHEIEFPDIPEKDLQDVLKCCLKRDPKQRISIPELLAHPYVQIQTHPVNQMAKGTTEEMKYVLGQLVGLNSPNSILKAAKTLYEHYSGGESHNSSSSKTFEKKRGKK

[15] = tested on: T7, Receptor-type tyrosine-protein kinase FLT3 (Homo sapiens), P36888 [D835Y]; conditions: at 1 µM
T7 sequence (whole entry): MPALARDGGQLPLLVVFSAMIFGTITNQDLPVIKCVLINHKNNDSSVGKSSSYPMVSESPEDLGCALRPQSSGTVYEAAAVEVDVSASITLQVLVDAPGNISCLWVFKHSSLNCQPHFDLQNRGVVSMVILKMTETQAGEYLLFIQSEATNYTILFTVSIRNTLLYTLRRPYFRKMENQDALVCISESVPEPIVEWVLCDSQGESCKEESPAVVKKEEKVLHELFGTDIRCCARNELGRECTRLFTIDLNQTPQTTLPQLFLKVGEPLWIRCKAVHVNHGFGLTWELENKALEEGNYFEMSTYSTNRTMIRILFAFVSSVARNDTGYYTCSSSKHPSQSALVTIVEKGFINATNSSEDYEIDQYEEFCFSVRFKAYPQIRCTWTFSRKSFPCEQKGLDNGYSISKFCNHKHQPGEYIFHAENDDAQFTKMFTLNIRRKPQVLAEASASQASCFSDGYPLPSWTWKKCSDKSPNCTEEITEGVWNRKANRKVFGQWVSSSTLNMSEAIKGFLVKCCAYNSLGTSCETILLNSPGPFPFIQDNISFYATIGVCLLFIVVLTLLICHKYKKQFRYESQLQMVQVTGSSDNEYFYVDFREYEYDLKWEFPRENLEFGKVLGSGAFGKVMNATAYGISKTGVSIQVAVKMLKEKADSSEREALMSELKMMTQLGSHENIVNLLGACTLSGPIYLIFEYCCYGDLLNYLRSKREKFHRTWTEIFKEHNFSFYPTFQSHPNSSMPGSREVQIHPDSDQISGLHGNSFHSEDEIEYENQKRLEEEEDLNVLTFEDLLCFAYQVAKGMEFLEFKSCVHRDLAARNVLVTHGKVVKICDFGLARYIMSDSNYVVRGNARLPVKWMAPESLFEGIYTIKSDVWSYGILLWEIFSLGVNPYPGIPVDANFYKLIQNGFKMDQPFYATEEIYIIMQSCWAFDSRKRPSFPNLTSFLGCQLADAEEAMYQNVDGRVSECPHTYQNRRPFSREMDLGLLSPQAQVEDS

[16] = molecular target: Vascular endothelial growth factor receptor 3 (Homo sapiens) (UniProt P35916); conditions: at 0.1 µM
Sequence of UniProt P35916 (P35916 whole entry): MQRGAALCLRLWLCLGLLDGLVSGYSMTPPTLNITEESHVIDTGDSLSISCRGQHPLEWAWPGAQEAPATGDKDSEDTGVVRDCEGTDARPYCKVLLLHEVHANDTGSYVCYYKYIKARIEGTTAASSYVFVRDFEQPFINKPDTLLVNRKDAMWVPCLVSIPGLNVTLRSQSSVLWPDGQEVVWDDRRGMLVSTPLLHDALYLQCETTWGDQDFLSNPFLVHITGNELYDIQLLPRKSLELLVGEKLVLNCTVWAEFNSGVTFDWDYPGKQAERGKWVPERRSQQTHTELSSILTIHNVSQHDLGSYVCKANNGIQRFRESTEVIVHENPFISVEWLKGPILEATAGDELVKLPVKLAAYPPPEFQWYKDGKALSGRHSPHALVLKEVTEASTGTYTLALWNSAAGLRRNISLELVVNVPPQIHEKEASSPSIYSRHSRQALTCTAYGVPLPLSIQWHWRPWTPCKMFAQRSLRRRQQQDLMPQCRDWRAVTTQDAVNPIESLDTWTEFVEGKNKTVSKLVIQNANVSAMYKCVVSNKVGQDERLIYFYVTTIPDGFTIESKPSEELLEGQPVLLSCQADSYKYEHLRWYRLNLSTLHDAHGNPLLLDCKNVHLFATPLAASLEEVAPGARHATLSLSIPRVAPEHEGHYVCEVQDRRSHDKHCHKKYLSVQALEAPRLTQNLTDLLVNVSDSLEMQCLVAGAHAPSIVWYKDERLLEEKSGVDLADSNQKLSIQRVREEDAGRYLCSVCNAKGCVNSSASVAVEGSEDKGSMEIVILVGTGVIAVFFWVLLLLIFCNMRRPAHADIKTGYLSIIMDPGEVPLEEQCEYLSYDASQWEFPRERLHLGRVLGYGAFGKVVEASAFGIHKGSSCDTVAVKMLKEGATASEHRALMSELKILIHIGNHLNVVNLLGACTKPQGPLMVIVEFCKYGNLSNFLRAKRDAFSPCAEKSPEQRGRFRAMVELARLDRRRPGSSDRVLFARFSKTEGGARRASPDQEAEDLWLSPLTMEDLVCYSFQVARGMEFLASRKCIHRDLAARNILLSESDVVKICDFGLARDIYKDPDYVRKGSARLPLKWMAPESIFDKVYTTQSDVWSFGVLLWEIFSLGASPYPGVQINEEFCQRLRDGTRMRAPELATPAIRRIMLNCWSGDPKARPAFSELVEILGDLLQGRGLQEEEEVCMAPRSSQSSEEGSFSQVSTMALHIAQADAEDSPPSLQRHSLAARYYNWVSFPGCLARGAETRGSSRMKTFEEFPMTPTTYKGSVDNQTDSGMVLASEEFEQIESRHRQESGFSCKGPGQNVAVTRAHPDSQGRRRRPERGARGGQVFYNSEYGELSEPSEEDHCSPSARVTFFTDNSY

[17] = molecular target: Vascular endothelial growth factor receptor 3 (Homo sapiens) (UniProt P35916); conditions: at 1 µM
[18] = molecular target: Macrophage colony-stimulating factor 1 receptor (Homo sapiens) (UniProt P07333); conditions: at 0.1 µM
Sequence of UniProt P07333 (P07333 whole entry): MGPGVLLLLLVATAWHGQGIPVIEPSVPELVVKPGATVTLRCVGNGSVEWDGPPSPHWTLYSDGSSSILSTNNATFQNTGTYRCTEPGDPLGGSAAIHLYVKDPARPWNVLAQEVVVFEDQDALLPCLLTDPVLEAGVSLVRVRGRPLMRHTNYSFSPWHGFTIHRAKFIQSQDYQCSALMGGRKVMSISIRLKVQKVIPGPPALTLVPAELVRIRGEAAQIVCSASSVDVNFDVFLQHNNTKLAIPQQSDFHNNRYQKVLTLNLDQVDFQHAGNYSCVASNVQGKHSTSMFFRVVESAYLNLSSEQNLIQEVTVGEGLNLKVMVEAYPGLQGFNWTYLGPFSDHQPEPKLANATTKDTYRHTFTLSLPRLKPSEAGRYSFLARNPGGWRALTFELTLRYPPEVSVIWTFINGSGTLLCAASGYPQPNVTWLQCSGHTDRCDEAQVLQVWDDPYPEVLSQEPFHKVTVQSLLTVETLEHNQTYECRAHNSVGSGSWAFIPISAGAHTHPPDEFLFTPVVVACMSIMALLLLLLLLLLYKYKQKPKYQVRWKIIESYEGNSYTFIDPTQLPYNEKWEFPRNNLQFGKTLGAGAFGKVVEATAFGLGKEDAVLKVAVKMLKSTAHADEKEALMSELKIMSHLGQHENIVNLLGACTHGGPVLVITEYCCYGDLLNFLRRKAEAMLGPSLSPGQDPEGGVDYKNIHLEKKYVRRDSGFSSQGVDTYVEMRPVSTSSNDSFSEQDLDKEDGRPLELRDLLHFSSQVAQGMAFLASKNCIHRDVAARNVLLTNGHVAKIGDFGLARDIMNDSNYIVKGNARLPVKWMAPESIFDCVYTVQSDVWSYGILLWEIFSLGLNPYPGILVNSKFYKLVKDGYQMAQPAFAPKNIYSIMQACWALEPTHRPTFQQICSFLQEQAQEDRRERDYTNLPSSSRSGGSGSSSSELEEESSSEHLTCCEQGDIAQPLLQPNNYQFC

[19] = molecular target: Macrophage colony-stimulating factor 1 receptor (Homo sapiens) (UniProt P07333); conditions: at 1 µM
[20] = molecular target: Tyrosine-protein kinase Fyn (Homo sapiens) (UniProt P06241); conditions: at 0.1 µM
Sequence of UniProt P06241 (P06241 whole entry, looked up): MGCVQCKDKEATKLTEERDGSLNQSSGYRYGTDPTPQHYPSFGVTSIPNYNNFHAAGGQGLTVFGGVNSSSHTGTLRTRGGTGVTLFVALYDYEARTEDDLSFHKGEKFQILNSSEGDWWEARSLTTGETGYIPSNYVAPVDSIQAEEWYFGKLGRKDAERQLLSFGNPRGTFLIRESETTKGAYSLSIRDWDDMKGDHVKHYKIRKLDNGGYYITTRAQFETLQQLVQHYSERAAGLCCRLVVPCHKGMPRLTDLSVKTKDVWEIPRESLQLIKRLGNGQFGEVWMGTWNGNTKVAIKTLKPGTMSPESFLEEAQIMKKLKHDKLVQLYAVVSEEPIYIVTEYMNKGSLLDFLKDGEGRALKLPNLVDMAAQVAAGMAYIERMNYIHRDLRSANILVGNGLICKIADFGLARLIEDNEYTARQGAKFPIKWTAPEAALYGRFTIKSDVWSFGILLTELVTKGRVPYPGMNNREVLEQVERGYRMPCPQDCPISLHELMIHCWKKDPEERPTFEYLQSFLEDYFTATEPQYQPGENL

SMILES: COc1ccccc1Oc1nccc(-c2c(-c3ccc(F)cc3)ncn2C2CCNCC2)n1
- inhibition [1]: 7.44%
- inhibition [2]: 3.05%
- inhibition [3]: 1.85%
- inhibition [4]: 6.39%
- inhibition [5]: 7.03%
- inhibition [6]: 1.92%
- inhibition [7]: 1.05%
- inhibition [8]: 3.35%
- inhibition [9]: 7.05%
- inhibition [10]: 9.33%
- inhibition [11]: 6.21%
- inhibition [12]: 5.14%
- inhibition [13]: 26.4%
- inhibition [14]: 13.3%
- inhibition [15]: 0.62%
- inhibition [16]: 2.32%
- inhibition [17]: 2.71%
- inhibition [18]: -0.34%
- inhibition [19]: 7.51%
- inhibition [20]: 0.99%
